According to the supplement of paper PMC6609913:
Where a name gives a salt, the structure may show the parent alone. ± gives the standard deviation of the averaged measurements. In all, about 1,300 compounds were measured (“normalised cell viability”: median about 1, lowest 2% from about 0.15 on). The list shows a part of the results.

System: V-C8 + BRCA2 (BRCA2-proficient hamster cells)
Assay: normalised cell viability (fraction of plate median); higher = more viable cells (less toxic)
Details: 5 µM
Procedure, shortened: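 Library drugs, held as 10 mM stocks in DMSO, were diluted to 5 μM in 100 μl medium and added to 96-well plates of V-C8 hamster cells, either lacking BRCA2 or with BRCA2 restored, 24 h after seeding. Plates ran for 3 days (screen 1) or 6 days (screen 2), alongside solvent-only wells. Viability came from a resazurin readout, median-plate normalised, as the mean of triplicate wells.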

SMILES	normalised cell viability (treatment time: 3 days)	normalised cell viability (treatment time: 6 days)
COC(=O)C1=C(C#N)NC(C)=C(C(=O)OC(C)C)C1c1cccc([N+](=O)[O-])c1 (stereo unspecified) [Nilvadipine]	0.996 ± 0.018	1.11 ± 0.032
CC1CC(OC(=O)c2ccccc2O)CC(C)(C)C1 (stereo unspecified) [Homosalate]	1.03 ± 0.04	1.02 ± 0.074
Nc1c2c(nc3ccccc13)CCCC2 [Tacrine hydrochloride]	0.905 ± 0.038	1.09 ± 0.014
CCN(CC)C(=S)SSC(=S)N(CC)CC [Disulfiram]	0.946 ± 0.031	0.939 ± 0.022
C/C(=C(\CCOP(=O)(O)O)SC(=O)c1ccccc1)N(C=O)Cc1cnc(C)nc1N [Benfotiamine]	1.01 ± 0.02	1.04 ± 0.016
CC1(C)O[C@@H]2C[C@H]3[C@@H]4CCC5=CC(=O)C=C[C@]5(C)[C@H]4[C@@H](O)C[C@]3(C)[C@]2(C(=O)CO)O1 [Desonide]	0.965 ± 0.092	0.953 ± 0.025
CC[C@H]1OC(=O)C[C@@H](O)[C@H](C)[C@@H](O[C@@H]2O[C@H](C)[C@@H](O[C@H]3C[C@@](C)(O)[C@@H](O)[C@H](C)O3)[C@H](N(C)C)[C@H]2O)[C@@H](CC=O)C[C@@H](C)C(=O)/C=C/C(C)=C/[C@@H]1CO[C@@H]1O[C@H](C)[C@@H](O)[C@@H](OC)[C@H]1OC [Tylosin]	1.07 ± 0.015	0.7 ± 0.08
O=C(CCCCCCC(=O)Nc1ccccc1)NO [Vorinostat]	0.132 ± 0.0091	0.17 ± 0.021
COC(=O)C1=C(C)NC(C)=C(C(=O)OC2CCCN(Cc3ccccc3)C2)C1c1cccc([N+](=O)[O-])c1 (stereo unspecified) [Benidipine hydrochloride]	0.988 ± 0.065	0.97 ± 0.04
C[C@]12C[C@H](O)[C@H]3[C@@H](CCC4=CC(=O)CC[C@@]43C)[C@@H]1CC[C@@H]2C(=O)CO [Corticosterone]	1.09 ± 0.064	1.028 ± 0.0075
CC1(C)S[C@@H]2[C@H](NC(=O)[C@H](C(=O)O)c3ccsc3)C(=O)N2[C@H]1C(=O)O [Ticarcillin sodium]	1.02 ± 0.021	1.04 ± 0.097
CN[C@@H]1[C@@H](O)[C@@H](O[C@@H]2[C@@H](O)[C@H](O[C@H]3OC(CN)=CC[C@H]3N)[C@@H](N)C[C@H]2N)OC[C@]1(C)O [Sisomicin sulfate]	0.292 ± 0.013	0.348 ± 0.033
Cc1cc(NS(=O)(=O)c2ccc(N)cc2)no1 [Sulfamethoxazole]	0.976 ± 0.035	0.981 ± 0.025
O=C1CN(/N=C/c2ccc(-c3ccc([N+](=O)[O-])cc3)o2)C(=O)N1 [Dantrolene sodium salt]	1.01 ± 0.023	1.06 ± 0.034
CCOC(=O)n1ccn(C)c1=S [Carbimazole]	0.926 ± 0.024	0.895 ± 0.017
C[C@H](N)[C@H](O)c1cccc(O)c1 [Metaraminol bitartrate]	1.093 ± 0.01	1.07 ± 0.053
CCN(CC)CCOC(=O)C(Cc1cccc2ccccc12)CC1CCCO1 (stereo unspecified) [Nafronyl oxalate]	0.237 ± 0.025	0.295 ± 0.0076
Cc1ccccc1OCC(O)CO (stereo unspecified) [Mephenesin]	0.995 ± 0.014	1.03 ± 0.037
O=C1CN(/N=C/c2ccc([N+](=O)[O-])o2)C(=O)N1 [Nitrofurantoin]	0.979 ± 0.043	0.954 ± 0.043

SMILES	normalised cell viability (treatment time: 3 days)	normalised cell viability (treatment time: 6 days)
CCCC1O[C@@H]2C[C@H]3[C@@H]4CCC5=CC(=O)C=C[C@]5(C)[C@H]4[C@@H](O)C[C@]3(C)[C@]2(C(=O)CO)O1 (stereo partly specified) [Budesonide]	0.9516 ± 0.0071	0.936 ± 0.024
Nc1nc2c(ncn2COCCO)c(=O)[nH]1 [Acyclovir]	0.938 ± 0.031	1.01 ± 0.036
CCCCCN(CCCCC)C(=O)C(CCC(=O)O)NC(=O)c1ccc(Cl)c(Cl)c1 (stereo unspecified) [Lorglumide sodium salt]	1 ± 0.032	1.04 ± 0.015
CC(C)(C)NC(=O)[C@@H]1C[C@@H]2CCCC[C@@H]2CN1C[C@@H](O)[C@H](Cc1ccccc1)NC(=O)[C@H](CC(N)=O)NC(=O)c1ccc2ccccc2n1 [Saquinavir mesylate]	0.842 ± 0.061	0.952 ± 0.073
COc1ncnc(NS(=O)(=O)c2ccc(N)cc2)c1OC [Sulfadoxine]	0.966 ± 0.088	0.99 ± 0.027
CC(=O)OCC(=O)[C@@]1(O)[C@H](C)C[C@H]2[C@@H]3CCC4=CC(=O)C=C[C@]4(C)[C@@]3(F)[C@@H](O)C[C@@]21C [Dexamethasone acetate]	1.08 ± 0.057	1.02 ± 0.056
COc1ccc(C(=O)c2ccccc2)c(O)c1 [Oxybenzone]	0.942 ± 0.082	0.976 ± 0.033
COc1c(N2C[C@@H]3CCCN[C@@H]3C2)c(F)cc2c(=O)c(C(=O)O)cn(C3CC3)c12 [Moxifloxacin]	1.01 ± 0.11	1.01 ± 0.093
COc1ccc(C(=O)CC(=O)c2ccc(C(C)(C)C)cc2)cc1 [Avobenzone]	1.02 ± 0.057	1.04 ± 0.12
CCOC(=O)C1=C(C)NC(C)=C(C(=O)OCC)C1c1ccccc1/C=C/C(=O)OC(C)(C)C [Lacidipine]	1.09 ± 0.018	1.04 ± 0.083
CCOc1cc(CC(=O)N[C@@H](CC(C)C)c2ccccc2N2CCCCC2)ccc1C(=O)O [Repaglinide]	0.966 ± 0.053	0.99 ± 0.073
C#C[C@]1(O)CC[C@H]2[C@@H]3CCc4cc(O)ccc4[C@H]3CC[C@@]21C [Ethinylestradiol]	0.996 ± 0.036	1.06 ± 0.13
CCCCN(CCCC)CCC(O)c1cc2c(Cl)cc(Cl)cc2c2cc(C(F)(F)F)ccc12 (stereo unspecified) [Halofantrine hydrochloride]	0.849 ± 0.027	0.93 ± 0.027
C[C@@H](O)[C@H]1C(=O)N2C(C(=O)O)=C(S[C@@H]3CN[C@H](C(=O)N(C)C)C3)[C@H](C)[C@H]12 [Meropenem]	1.02 ± 0.037	1.04 ± 0.053
CC(=O)O[C@H]1C[C@@H]2CC[C@@H]3[C@H](CC[C@@]4(C)[C@H]3C[C@H]([N+]3(C)CCCCC3)[C@@H]4OC(C)=O)[C@@]2(C)C[C@@H]1N1CCCCC1 [Vecuronium bromide]	1.03 ± 0.025	1.03 ± 0.086
C[C@]12C=CC(=O)C=C1CC[C@H]1[C@@H]3C[C@@H](O)[C@](O)(C(=O)CO)[C@@]3(C)C[C@H](O)[C@@]12F [Triamcinolone]	1.08 ± 0.038	1.07 ± 0.034
CC1(C)O[C@@H]2C[C@H]3[C@@H]4CCC5=CC(=O)CC[C@]5(C)[C@@]4(F)[C@@H](O)C[C@]3(C)[C@]2(C(=O)CCl)O1 [Halcinonide]	1.18 ± 0.2	1.06 ± 0.03
CCN(CC)C(=O)/C(C#N)=C/c1cc(O)c(O)c([N+](=O)[O-])c1 [Entacapone]	0.944 ± 0.013	1.03 ± 0.03
OC(c1cc(C(F)(F)F)nc2c(C(F)(F)F)cccc12)C1CCCCN1 (stereo unspecified) [Mefloquine hydrochloride]	0.607 ± 0.067	0.891 ± 0.041
